We go through one molecule from publication PMC12074784 (Journal of the American Heart Association: Cardiovascular …, 2025).

This assay has as its target T1, caveolin-1 (rat (endogenous in rat cardiomyocytes), UniProt P41350 1-178).
T1 sequence (looked up): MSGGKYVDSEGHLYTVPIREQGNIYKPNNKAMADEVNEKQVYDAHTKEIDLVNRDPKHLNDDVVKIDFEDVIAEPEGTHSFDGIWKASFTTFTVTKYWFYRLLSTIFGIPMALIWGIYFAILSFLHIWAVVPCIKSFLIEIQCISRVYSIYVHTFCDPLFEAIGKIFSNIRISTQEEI
Nature of the assay: co-IP.

B1: connexin-43 (natural protein)
chain: not shown
Turning to B1, the “co-IP band ratio Cx43/Cav-1, Sham group” value turned out to be 0.77.
